Measured values published in PubChem BioAssay AID360 (National Center for Advancing Translational Sciences (NCATS), 2006).
About 550 (1.1%) of roughly 48,000 compounds were called active. Roughly 4% stayed inconclusive and do not appear here. Cut-off read from the data, not from the text of the source: active = potency below about 15 µM; inconclusive = mostly about 16 µM to 33 µM; inactive = weaker than that. Some of the results follow.

Biological target: Lysosomal acid glucosylceramidase (Homo sapiens) (UniProt P04062)
Chain of UniProt P04062 (P04062 whole entry, looked up): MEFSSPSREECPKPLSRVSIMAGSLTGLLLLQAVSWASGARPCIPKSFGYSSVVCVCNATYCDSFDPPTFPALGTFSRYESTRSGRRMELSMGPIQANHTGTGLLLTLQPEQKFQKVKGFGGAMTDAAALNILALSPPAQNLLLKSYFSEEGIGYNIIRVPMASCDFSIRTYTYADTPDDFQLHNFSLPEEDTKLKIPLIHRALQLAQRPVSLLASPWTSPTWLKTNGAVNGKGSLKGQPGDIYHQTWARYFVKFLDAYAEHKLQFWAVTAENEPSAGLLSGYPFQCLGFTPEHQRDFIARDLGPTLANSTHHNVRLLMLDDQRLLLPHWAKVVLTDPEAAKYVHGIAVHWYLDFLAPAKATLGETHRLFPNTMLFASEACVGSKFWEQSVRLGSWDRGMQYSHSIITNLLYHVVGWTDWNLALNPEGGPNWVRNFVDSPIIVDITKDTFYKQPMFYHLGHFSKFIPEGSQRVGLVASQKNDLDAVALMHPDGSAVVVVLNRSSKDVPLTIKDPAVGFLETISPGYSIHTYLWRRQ
Experiment: Glucocerebrosidase;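 note: the screen sought inhibitors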
Settings: purified enzyme, resorufin glucoside fluorescence (screen aimed at inhibitors), 20 min
Procedure, shortened: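 Normal human glucocerebrosidase (0.2 nM final) was assayed with resorufin β-D-glucopyranoside (30 uM final) in 50mM citric acid/KH2PO4, 10mM sodium taurocholate, 0.01% tween-20, pH 5.9. Compounds were titrated; fluorescence (Ex 548, Em 600) read after 20 min at RT.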
Potency is the fitted concentration of half-maximal effect.

Potency, inactive:
O=C(O)c1cc(NCc2ccc3c(c2)OCO3)ccc1N1CCOCC1 > 76.9 µM, CCOC(=O)N1CCN(CC(=O)Nc2c(C(=O)OC)[nH]c3ccc(Cl)cc23)CC1 > 76.9 µM, COC(=O)C1=C(C)Nc2ncnn2C1c1ccco1 (stereo unspecified) > 76.9 µM, Cc1nc(NCc2ccco2)c2c3c(sc2n1)CCC3 > 76.9 µM, COc1cc2[nH]c3c(N4CCN(c5ccccn5)CC4)ncnc3c2cc1OC > 76.9 µM, CC(C)c1nnc(NC(=O)c2c(O)c3cccc4c3n(c2=O)CC4)s1 > 76.9 µM, CSc1ccccc1NC(=O)c1noc2c1CCC2 > 76.9 µM, Cc1cc(NC(=O)c2ocnc2C)no1 > 76.9 µM, O=C(O)c1ccc(-n2c(-c3ccccc3)n[nH]c2=S)cc1 > 76.9 µM, Cc1cc(C(F)(F)F)nn1-c1nc(-c2ccco2)cc(C(F)(F)F)n1, CC1CCCC(C)N1C(=O)CSc1nnc(-c2cccs2)o1 (stereo unspecified) > 76.9 µM, O=C(NCCO)c1nc(NCCO)c2ccccc2n1 > 76.9 µM, Cc1cc(=O)n2nc(N3CCCC(C(=O)NCCc4ccccc4)C3)sc2n1 (stereo unspecified) > 76.9 µM, Cn1c(=O)n(C)c2cc(S(=O)(=O)NCc3ccco3)ccc21 > 76.9 µM, CCOc1ccccc1C(=O)NCCCN1CCN(CCCNC(=O)c2ccccc2OCC)CC1 > 76.9 µM, COc1ccccc1CNc1ncnc2c1nnn2Cc1ccccc1 > 76.9 µM, CCC(C)c1cc(S(=O)(=O)N2CCOCC2)ccc1OC (stereo unspecified) > 76.9 µM, CCCCC(SCC(=O)Nc1ccccc1)C(=O)O (stereo unspecified) > 76.9 µM, COc1cc(C(=O)NCCC(=O)NCCN2CCOCC2)cc(OC)c1OC > 76.9 µM, COc1ccc(CN2CC(C(=O)NCCN3CCOCC3)CC2=O)cc1 (stereo unspecified) > 76.9 µM, COc1ccc(C2=NO[C@@H]3C(=O)N(c4cccc(C)c4C)C(=O)[C@H]23)cc1OC > 76.9 µM, CSc1nc2c(c(=O)[nH]c(=O)n2C)n1C/C=C(\C)Cl > 76.9 µM, C=CCN=C1CC(C)(C)CC(=O)/C1=C(/O)CCC(=O)OC > 76.9 µM, O=C(Nc1cccc(N2CCCC2)c1)c1cccs1 > 76.9 µM, COC(=O)C1=C(N)n2c(s/c(=C\c3cccnc3)c2=O)=C(C(=O)OC)C1c1cccnc1 (stereo unspecified) > 76.9 µM, C/C=C/Cn1c(SCc2ccccc2)nc2c1c(=O)[nH]c(=O)n2C > 15.4 µM, CC1CC(C)CN(S(=O)(=O)c2ccc(C(=O)N3CCN(c4ccccc4)CC3)cc2)C1 (stereo unspecified) > 76.9 µM, CCN(CC)S(=O)(=O)c1ccc2oc(C(=O)NCc3ccc(F)cc3)c(C)c2c1 > 76.9 µM, O=C(C1CCC1)N1CCC(c2nc3c(nnn3Cc3c(F)cccc3Cl)c(=O)[nH]2)CC1 > 76.9 µM, CCC(C)NC(=O)C(NS(=O)(=O)c1cccc2nsnc12)c1ccccc1 (stereo unspecified) > 76.9 µM, CN(C)CC(C)(C)CNC(=O)C1CCN(Cc2ccccc2O)CC1 > 76.9 µM, CCOC(=O)N1CCN(CC(=O)Nc2cc(OCC)ccc2OCC)CC1 > 76.9 µM, COC(=O)c1c(C(C)=O)cnc2ccc(Br)cc12 > 76.9 µM, COc1ccc2nc(SCC(=O)Nc3ccccc3C#N)[nH]c2c1 > 76.9 µM, CS(=O)(=O)N(CC(=O)NCCSCc1c(F)cccc1Cl)c1ccc2c(c1)OCO2 > 76.9 µM, O=C(CN(CCc1ccccc1)C(=O)CN1C(=O)COc2ccccc21)NCc1ccco1 > 76.9 µM, CC12CN(C(=O)c3ccco3)CC(c3ccccc3)(CN(C(=O)c3ccco3)C1)C2=O > 76.9 µM, COc1cccc(-c2csc(N3CCN(S(=O)(=O)c4ccc(F)cc4)CC3)n2)c1 > 76.9 µM, COC(=O)c1ccc(CSc2nnc(CNC(=O)COc3ccc(Cl)cc3)o2)o1 > 76.9 µM, CS(=O)(=O)N(Cc1cc2ccccc2[nH]c1=O)C1CCCCC1 > 76.9 µM, Clc1ccc(CSc2ncccn2)cc1 > 76.9 µM, CC(C)COC(=O)n1c(SCC(=O)N(C)C)nc2ccccc21 > 76.9 µM, Cc1ccc2cccc(S(=O)(=O)N3CCN(c4ccccc4F)CC3)c2n1 > 76.9 µM, CCOC(=O)N1CCN(C(=O)C2CCN(S(=O)(=O)CC)CC2)CC1 > 76.9 µM, COc1ccc(CN(CC(=O)NCC2CCCO2)C(=O)CCC(=O)Nc2cc(C)on2)cc1 (stereo unspecified) > 76.9 µM, c1ccc(-n2c(SCC3CCCCO3)nnc2-c2cnccn2)cc1 (stereo unspecified) > 76.9 µM, Cc1cc(Cl)ccc1OC(C)C(=O)Nc1ccccc1N1CCOCC1 (stereo unspecified) > 76.9 µM, Cn1nccc1/C=C(/C#N)S(=O)(=O)c1ccccc1 > 76.9 µM, Oc1ccc2[nH]ccc2c1 > 76.9 µM, CCC(=O)Nc1cc(C)c(NC(=O)C23CC4CC(CC(C4)C2)C3)cn1 > 76.9 µM, CCOC(=O)c1sc(N2C(=O)C(O)=C(C(=O)c3ccco3)C2c2ccccc2)nc1C (stereo unspecified) > 76.9 µM, O=C(O)COc1ccc(-c2nnn(Cc3ccccc3F)n2)cc1 > 76.9 µM, O=C(O)c1cccc(CSc2ncccn2)c1 > 76.9 µM, Cc1nc2ccccc2nc1N1CCC(C)CC1 > 76.9 µM, Cn1c(=O)oc2cc(S(=O)(=O)NCCC(=O)NCCc3ccccc3)ccc21 > 76.9 µM, NC(=O)c1ccccc1NC(=O)CS(=O)(=O)Cc1ccccc1 > 76.9 µM, c1ccc(-n2ncc3c2ncn2nnnc32)cc1 > 76.9 µM, Cc1cc(-c2nnc(-c3ccccc3)c(-c3ccccc3)n2)c(C)o1 > 76.9 µM, Cc1nc2cc(NC(=O)NCc3ccco3)ccc2o1 > 76.9 µM, CC1(C)CC(=O)C=C(Nc2ccc(F)cc2)C1 > 76.9 µM, O=C(Cn1c(NCCO)nc2ccccc21)c1ccc(Cl)cc1, O=C(NCc1ccccn1)c1ccc(NC(=O)c2ccco2)cc1 > 76.9 µM, O=C1C2C3C=CC(C3)C2C(=O)N1c1ccncc1 (stereo unspecified) > 76.9 µM, CCOC(=O)c1cn(CC(=O)Nc2ccc3c(c2)OCCO3)nn1 > 76.9 µM, Cc1cc(C)c2cc(CN(CCO)C(=O)Nc3ccc(F)cc3)c(=O)[nH]c2c1 > 76.9 µM, CCC(CC)C(=O)Nc1cccc(C(=O)Nc2ccc3c(c2)OCO3)c1, CCN1C(=O)C(C)S/C1=N\S(=O)(=O)c1ccc(Cl)s1 (stereo unspecified) > 76.9 µM, COc1cccc(-c2cc(C(=O)N3CCCc4ccccc43)no2)c1 > 76.9 µM, COc1ccc(C(=O)CSc2nnc(Cn3cnc4ccccc43)o2)cc1 > 76.9 µM, O=C(CCn1nc(-c2ccccc2)c2ccccc2c1=O)N1CCN(c2ccccc2)CC1 > 76.9 µM, Cc1ccc(S(=O)(=O)N2CC(O)CC2C(=O)Nc2ccc3c(c2)CCC3)cc1 (stereo unspecified) > 76.9 µM, COc1ccc(C)cc1NC(=O)CN1CCN(S(=O)(=O)c2ccc(F)cc2)CC1 > 76.9 µM, C=CCOc1c(Cl)cc(C2NC(=O)NC(C)=C2C(=O)OC)cc1Cl (stereo unspecified) > 76.9 µM, CCSc1nc(=S)n(CC)c(C)c1C(C)=O > 76.9 µM, CCOC(=O)COc1cc2c3c(c(=O)oc2cc1C)CCCC3, CN1CCC(OC(=O)COc2ccc(C(C)(C)C)cc2)CC1 > 76.9 µM, COc1ccc(-c2nnc(NC(=O)c3cc(C)on3)s2)cc1 > 76.9 µM, Cc1c(NC(=O)CC(=O)Nc2c(C)n(C)n(-c3ccccc3)c2=O)c(=O)n(-c2ccccc2)n1C > 76.9 µM, COc1ccc(NC(=O)CCCCn2c(=O)[nH]c3ccccc3c2=O)cc1 > 76.9 µM, COc1ccc(CN2CCN(C(=O)C3CC(=O)N(C4CCCCCC4)C3)CC2)c(OC)c1OC (stereo unspecified) > 76.9 µM, COc1cccc(-c2cc(C(F)(F)F)nc(N3CCCCC3)n2)c1 > 76.9 µM, CCCC(=O)Nc1cc(C)c(NC(=O)C23CC4CC(CC(C4)C2)C3)cn1 > 76.9 µM, CCC1Oc2ccccc2N(CC(=O)NCCC2=CCCCC2)C1=O (stereo unspecified) > 76.9 µM, CC1(C)CC(=O)CC(C)(C)N1OC(=O)c1ccccn1 > 76.9 µM, O=C(c1ccco1)N1CCN(CC(=O)N(C2CCCCC2)C2CCS(=O)(=O)C2)CC1 (stereo unspecified) > 76.9 µM, COc1ccccc1-c1nnc(SCC(=O)Nc2ccccc2)o1 > 76.9 µM, CCCCn1nnnc1NCc1cccs1 > 76.9 µM, COc1cc(C2N=C(c3ccccc3)NO2)cc(Br)c1O (stereo unspecified) > 76.9 µM, Cc1nn(-c2ccc(F)cc2)c(C)c1NS(=O)(=O)c1ccc(Cl)cc1 > 76.9 µM, CCOc1ccccc1NC(=O)CSc1nnc(CNC(=O)COc2ccc(Cl)cc2)o1 > 76.9 µM, CCOC(=O)c1cnc(SCC)[nH]c1=O > 76.9 µM
